From PubChem BioAssay AID588855 (National Center for Advancing Translational Sciences (NCATS), 2011)
Values joined by “and” are separate entries in the source; they are usually repeats but may differ in a detail not shown here. Identical values can stand only once. Hit rate of the full screen: of about 410,000 compounds, about 5,000 (1.2%) were called active. This list was built around the results that the source calls inconclusive (neither active nor inactive); the mix of calls is not that of the screen. Calls follow the shape of the dose curve; as a rule, active = well fitted inhibition curve with a large enough effect; inconclusive = small, poorly fitted or top-dose-only effect; inactive = no such curve, though single readings can be large or run the other way. Potencies beside an inconclusive call are fits to weak or partial responses and may not hold up.

Experiment: qHTS for Inhibitors of TGF-b; also: nearly all actives have a fitted effect of over 65% in size
Details: HepG2 CAGA-GFP TGF-b/SMAD3 reporter, GFP fluorescence, 18 h, TGF-beta stimulated, 500 pg/mL final; series mostly up to 46.1 µM
In short: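 Cell-based qHTS in HEPG2 carrying a CAGA-GFP Smad reporter; compounds added before 500 pg/mL final TGF-beta, 18 h incubation at 37 degrees C, GFP fluorescence quantified per cell by imaging cytometry.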
Potency is read from the fitted curve at half-maximal effect; tags tell the direction and shape of the fitted curve.

Question: Which Potency does the source give for `Cc1ccc(C)c(S(=O)(=O)N2CCN(c3ncnc4sccc34)CC2)c1` here?
Answer: inconclusive: 0.708 µM [inhibitor, partial curve, poor fit]

Question: Which Potency does the source give for `CC1CC(NC(=O)Cc2ccc(Br)cc2)CC(C)(C)C1` (stereo not given) here?
Answer: inconclusive: 35.5 µM [inhibitor, single point]

Question: Which Potency does the source give for `CCOC(=O)C1(CC2CCCCO2)CCN(Cc2ccccc2-c2ccco2)CC1` (stereo not given) here?
Answer: inconclusive: 14.1 µM [inhibitor, single point]

Question: With `COc1ccc(C(OCC(O)CNC(C)c2ccccc2)c2ccc(OC)cc2)cc1` (stereo not given) as the molecule, how does the Potency read?
Answer: inconclusive: 35.5 µM [inhibitor, single point]

Question: Which Potency does the source give for `O=C(CSc1nc2ccccc2c(=O)n1CC1CCCCC1)N1CCOCC1` here?
Answer: inconclusive: 5.62 µM [inhibitor, single point]

Question: For `CCCCN(C)C(=O)C1CCN(Cc2cccc(OCc3ccccc3)c2)CC1`, which Potency is on record?
Answer: inconclusive: 35.5 µM [inhibitor, single point]

Question: For `Cc1nc2c(c(C)c1CCC(=O)Nc1cccc(C(F)(F)F)c1)c(=O)n(C)c(=O)n2C`, which Potency is on record?
Answer: inconclusive: 3.55 µM [inhibitor, partial curve, poor fit]

Question: Which Potency does the source give for `CC(=O)Nc1ccc(S(=O)(=O)N2CCCN(S(=O)(=O)c3ccc(C)cc3)CC2)cc1` here?
Answer: inconclusive: 0.891 µM [inhibitor, full curve, poor fit]

Question: For `CC(C)C1C(=O)N(Cc2cn(Cc3ccco3)nn2)CCS(=O)(=O)N1Cc1ccc(-c2ccc(Cl)c(Cl)c2)cc1` (stereo not given), which Potency is on record?
Answer: inconclusive: 35.5 µM [inhibitor, single point]

Question: For `C=CCN1CN(S(=O)(=O)c2cccc(Cl)c2)c2nc3ccccc3nc21`, which Potency is on record?
Answer: inconclusive: 25.1 µM [inhibitor, single point]

Question: With `COc1cc(OC)c(Nc2nc3ccc(C)cc3n3nnnc23)cc1Cl` as the molecule, how does the Potency read?
Answer: inactive

Question: With `O=C1c2cccc3c([N+](=O)[O-])ccc(c23)C(=O)N1Cc1cccnc1` as the molecule, how does the Potency read?
Answer: inconclusive: 35.5 µM [inhibitor, single point]

Question: Which Potency does the source give for `Cc1cc(C)cc(NC(=O)Nc2cnccn2)c1` here?
Answer: inconclusive: 35.5 µM [inhibitor, single point]

Question: With `CCCN1CCc2c(sc3nc(SCC)n(-c4ccc(OC)cc4)c(=O)c23)C1` as the molecule, how does the Potency read?
Answer: inactive

Question: For `CN(C)c1nc(Nc2ccccc2)nc(N(C)C)n1`, which Potency is on record?
Answer: inconclusive: 11.2 µM [inhibitor, partial curve, poor fit]

Question: Which Potency does the source give for `O=C(Nc1nc([C@@H]2O[C@H](CO)[C@@H](O)[C@H](O)[C@H]2O)cs1)NC(c1ccccc1)c1ccccc1` here?
Answer: inactive

Question: Which Potency does the source give for `Cc1ccc(NC(=O)NC2CC(=O)N(c3ccc4c(c3)OCCO4)C2)cc1C` (stereo not given) here?
Answer: inconclusive: 22.4 µM [inhibitor, single point]

Question: For `CCOc1ccc(/C=N/NC(=O)c2cc(-c3ccccc3)nc3ccccc23)cc1O`, which Potency is on record?
Answer: inactive

Question: For `CCN(CC)c1ccc(/C=C/c2cc(Cl)nc3ccccc23)cc1`, which Potency is on record?
Answer: inactive

Question: For `Cc1ccc(S(=O)(=O)N2CCN(C(=O)CN3CCc4ccccc4C3)CC2)cc1`, which Potency is on record?
Answer: inactive

Question: With `S=C(NCc1ccc2[nH]c3c(c2c1)CCCC3)Nc1ccccc1` as the molecule, how does the Potency read?
Answer: inconclusive: 22.4 µM [inhibitor, single point]

Question: Which Potency does the source give for `COC1(OC)C(/C=C/c2ccc(Cl)cc2)C(C#N)(C#N)C1(OC)OC` (stereo not given) here?
Answer: inconclusive: 8.91 µM [inhibitor, partial curve, poor fit]

Question: Which Potency does the source give for `Cc1cccc(-n2ncc3c(N(C)C4CCCCC4)ncnc32)c1` here?
Answer: inactive

Question: For `O=C(Cc1cccc2ccccc12)NCC(=O)N1CCN(Cc2cccc(C(F)(F)F)c2)CC1`, which Potency is on record?
Answer: active: 11.2 µM

Question: Which Potency does the source give for `Cc1ccc(-c2ccc(C(=O)Nc3cccc(F)c3)o2)c2ccccc12` here?
Answer: inconclusive: 14.1 µM [inhibitor, single point]

Question: With `Cc1ccc(-c2nnc(Nc3ccc(Br)cc3)c3ccccc23)cc1S(=O)(=O)N1CCOCC1` as the molecule, how does the Potency read?
Answer: inconclusive: 28.2 µM [inhibitor, single point]

Question: With `CCOC(=O)c1sc(-c2ccc(Cl)cc2Cl)nc1O` as the molecule, how does the Potency read?
Answer: inactive

Question: With `CN(C)S(=O)(=O)c1cccc(C(=O)Nc2ccccc2N2CCCCC2)c1` as the molecule, how does the Potency read?
Answer: inactive

Question: Which Potency does the source give for `CCOCCCNC(=O)C(NC(=O)c1ccc(NC(C)=O)cc1)c1ccccc1` (stereo not given) here?
Answer: inconclusive: 35.5 µM [inhibitor, single point]

Question: For `CC(C)c1ccc(-n2c(-c3ccccc3)c[n+]3c2CCc2ccccc2-3)cc1`, which Potency is on record?
Answer: inconclusive: 2 µM [inhibitor, full curve, poor fit]

Question: Which Potency does the source give for `O=C(CCCCn1c(=O)[nH]c2ccsc2c1=O)NCC1CCCO1` (stereo not given) here?
Answer: inconclusive: 35.5 µM [inhibitor, single point]

Question: Which Potency does the source give for `CN(C(=O)c1cccc(NC(=O)Cc2cccc(NC(=O)C3CCCN(C(=O)c4ccccc4)C3)c2)c1)C1CCC1` (stereo not given) here?
Answer: inconclusive: 10 µM [inhibitor, partial curve, poor fit]

Question: With `CCOc1ccc(CCNC(=O)CCn2ccc3cc(S(=O)(=O)N4CCCC4)ccc32)cc1` as the molecule, how does the Potency read?
Answer: inconclusive: 35.5 µM [inhibitor, single point]

Question: Which Potency does the source give for `O=C(NCC(c1ccco1)N1CCN(c2ccccc2)CC1)C(=O)NC1CC1` (stereo not given) here?
Answer: inactive

Question: Which Potency does the source give for `CC(C)(C)c1ccccc1NC(=O)c1cccnc1` here?
Answer: inconclusive: 35.5 µM [inhibitor, single point]

Question: With `O=C(CCN1C(=O)/C(=C/c2ccc(F)cc2)SC1=S)NCCCn1ccnc1` as the molecule, how does the Potency read?
Answer: inactive

Question: Which Potency does the source give for `Cc1ccc2[nH]c(=O)c(CN(Cc3ccco3)Cc3nnnn3Cc3ccco3)cc2c1` here?
Answer: inactive

Question: Which Potency does the source give for `Cc1cc(Nc2cc(F)ccc2C)nc(-n2nc(C)cc2C)n1` here?
Answer: inconclusive: 3.55 µM [inhibitor, partial curve, poor fit]

Question: For `COCCCNC(=O)Cn1cnc2sc(C)c(S(=O)(=O)N3CC(C)CC(C)C3)c2c1=O` (stereo not given), which Potency is on record?
Answer: inconclusive: 6.31 µM [inhibitor, single point]

Question: With `COc1ccc(Br)cc1CN(C)CC(=O)NCCc1ccc(S(N)(=O)=O)cc1` as the molecule, how does the Potency read?
Answer: inactive

Question: For `Cc1ccc(C)c(NS(=O)(=O)c2cc(C(N)=O)ccc2C)c1`, which Potency is on record?
Answer: inactive

Question: Which Potency does the source give for `O=C(COC(=O)CCC(=O)c1cccs1)NCc1ccco1` here?
Answer: inconclusive: 0.126 µM [inhibitor, full curve, poor fit]

Question: Which Potency does the source give for `COc1cccc(-n2c(Cn3nc(C(F)F)cc3C(F)F)n[nH]c2=S)c1` here?
Answer: inconclusive: 5.62 µM [inhibitor, single point]

Question: For `N#C/C(=C(/O)c1cccs1)c1nc2ccccc2[nH]1`, which Potency is on record?
Answer: inconclusive: 0.355 µM [inhibitor, full curve, poor fit]

Question: Which Potency does the source give for `CC(=O)C1=C(C)NC(SCC(=O)c2ccc(F)cc2)=C(C#N)C1CC(C)C` (stereo not given) here?
Answer: inactive

Question: With `CCN(C(=O)C1CCCN(c2ncnc3c2nc2n3CCCCC2)C1)c1cccc(Cl)c1` (stereo not given) as the molecule, how does the Potency read?
Answer: inconclusive: 22.4 µM [inhibitor, single point] and inconclusive: 35.5 µM [inhibitor, single point]

Question: For `Cc1cc(NC(=O)c2ccc(NC(=O)CCS(=O)(=O)c3cccs3)cc2)ccc1Br`, which Potency is on record?
Answer: inconclusive: 35.5 µM [inhibitor, single point]

Question: With `CCCCCC(=O)N1C[C@H](n2cc(COC(=O)c3ccccc3)nn2)[C@@H](O)C[C@@H]1c1ccc(C)cc1` as the molecule, how does the Potency read?
Answer: inconclusive: 35.5 µM [inhibitor, single point]

Question: For `CC(Oc1ccc2ccccc2c1)C(=O)NNC(=O)Nc1ccccc1F` (stereo not given), which Potency is on record?
Answer: inconclusive: 35.5 µM [inhibitor, single point]

Question: Which Potency does the source give for `Cc1onc(-c2c(F)cccc2Cl)c1C(=O)Nc1nnc(C(F)(F)F)s1` here?
Answer: active: 17.8 µM

Question: Which Potency does the source give for `COC(=O)Nc1ccc(S(=O)(=O)Nc2cnc3ccccc3n2)cc1` here?
Answer: inconclusive: 2 µM [inhibitor, partial curve, poor fit]

Question: With `O=C(NCc1ccco1)C1CCN(C(=O)c2cc3sccc3n2Cc2ccc(F)cc2)CC1` as the molecule, how does the Potency read?
Answer: inconclusive: 35.5 µM [inhibitor, single point]

Question: With `CCCCCCCCn1c(=O)c(C(=O)OCC)c(O)c2ccccc21` as the molecule, how does the Potency read?
Answer: inactive

Question: With `CSc1ccc(/C=C/C(=O)OCC(=O)N2CCN(c3ccccc3)CC2)cc1` as the molecule, how does the Potency read?
Answer: inactive

Question: Which Potency does the source give for `CC(C)CC(N)c1csc(Nc2cnccn2)n1` (stereo not given) here?
Answer: inconclusive: 35.5 µM [inhibitor, single point]

Question: For `CC(C)CNC(=S)NC(=O)c1ccc(F)cc1`, which Potency is on record?
Answer: inactive

Question: Which Potency does the source give for `CC(C)C[C@H](NC(=O)c1nc[nH]c1C(=O)NC1CCN(C(=O)OC(C)(C)C)CC1)C(=O)OC(C)(C)C` here?
Answer: inconclusive: 25.1 µM [inhibitor, single point]

Question: Which Potency does the source give for `CC(C)CC(=O)N1C/C=C\C[C@@H](c2ccc(Cl)cc2)N(Cc2ccc(Cl)cc2)C(=O)[C@@H]1Cc1ccccc1` here?
Answer: inconclusive: 10 µM [inhibitor, partial curve, poor fit]

Question: For `O=C(Nc1ccc(C(F)(F)F)cc1)C(Cc1ccccc1)n1cccc1` (stereo not given), which Potency is on record?
Answer: inconclusive: 15.8 µM [inhibitor, single point]

Question: Which Potency does the source give for `Cc1ccc(C(=O)CC2(O)C(=O)N(C)c3ccccc32)o1` (stereo not given) here?
Answer: inactive

Question: Which Potency does the source give for `COCCN(C(=O)C1CC1)c1nnc(-c2ccc(C)cc2)s1` here?
Answer: inconclusive: 2.51 µM [inhibitor, partial curve, poor fit]

Question: With `O=C1c2cccc3cccc(c23)C(=O)N1CCN1CCN(CC(O)COc2ccccc2)CC1` (stereo not given) as the molecule, how does the Potency read?
Answer: inactive

Question: Which Potency does the source give for `CN(CC(=O)Nc1cccc(F)c1)C(=O)c1ccc2c(c1)CC(c1ccccc1)OC2=O` (stereo not given) here?
Answer: inactive

Question: With `COc1ccc(C2=NS(=O)(=O)N(C)C(C(=O)Nc3ccc4c(c3)OCO4)=C2)cc1` as the molecule, how does the Potency read?
Answer: inconclusive: 12.6 µM [inhibitor, partial curve, poor fit]

Question: For `CCSc1ccc([C@@H]2[C@H]3C(=O)N(CC)C(=O)[C@H]3[C@]3(C(=O)OC)CCCCN23)cc1OC`, which Potency is on record?
Answer: inconclusive: 35.5 µM [inhibitor, single point]
